In PubChem BioAssay (NCATS):
Inconclusive results, whose numbers are uncertain, are shown with a selection of clear calls. Potencies of inconclusive entries are doubtful fits and often do not repeat. Calls of active or inactive are those of the source. The call rests on the fitted dose curve; in most records, active means well fitted inhibition curve with a large enough effect; inconclusive means small, poorly fitted or top-dose-only effect; inactive means no such curve, though single readings can be large or run the other way.

biological target: Rap guanine nucleotide exchange factor 3 (Homo sapiens) (UniProt O95398); experiment: Confirmatory qHTS for antagonist of cAMP-regulated guanine nucleotide exchange factor 3 (EPAC1) (AID 1645880); conditions: EPAC1 Rap1B-BODIPY-GDP exchange, fluorescence; activity, negative = inhibition: at 115 µM (top of the series); further: nearly all actives have a fitted effect of over 55% in size;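 on activity, negative = inhibition: plate controls were DMSO only for no effect and full effect of the ATA control for full effect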
Chain of UniProt O95398 (O95398 whole entry, looked up): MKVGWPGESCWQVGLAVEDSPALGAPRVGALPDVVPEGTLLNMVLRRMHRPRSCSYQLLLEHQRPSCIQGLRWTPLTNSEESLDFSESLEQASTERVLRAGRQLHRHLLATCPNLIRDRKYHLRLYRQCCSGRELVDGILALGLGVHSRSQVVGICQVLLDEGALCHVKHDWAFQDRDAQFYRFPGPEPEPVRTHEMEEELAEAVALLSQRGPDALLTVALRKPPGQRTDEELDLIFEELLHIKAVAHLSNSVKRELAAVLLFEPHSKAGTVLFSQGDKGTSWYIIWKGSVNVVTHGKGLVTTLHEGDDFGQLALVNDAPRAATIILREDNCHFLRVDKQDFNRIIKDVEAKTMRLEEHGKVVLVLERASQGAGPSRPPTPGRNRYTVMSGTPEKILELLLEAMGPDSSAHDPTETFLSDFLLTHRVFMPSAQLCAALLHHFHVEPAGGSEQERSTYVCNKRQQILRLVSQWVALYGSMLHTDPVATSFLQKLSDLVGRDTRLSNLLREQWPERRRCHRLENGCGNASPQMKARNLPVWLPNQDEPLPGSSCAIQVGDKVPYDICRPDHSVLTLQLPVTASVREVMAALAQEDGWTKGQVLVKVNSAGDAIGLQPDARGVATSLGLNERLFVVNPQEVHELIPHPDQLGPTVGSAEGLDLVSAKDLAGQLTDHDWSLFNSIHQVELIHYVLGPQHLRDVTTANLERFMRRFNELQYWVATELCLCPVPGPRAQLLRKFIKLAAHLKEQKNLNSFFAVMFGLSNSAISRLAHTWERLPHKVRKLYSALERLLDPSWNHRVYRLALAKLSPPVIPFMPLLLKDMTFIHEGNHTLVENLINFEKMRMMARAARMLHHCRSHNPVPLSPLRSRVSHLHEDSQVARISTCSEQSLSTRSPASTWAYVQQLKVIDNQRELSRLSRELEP
Summary of the method: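 Released BODIPY-GDP fluoresces less than Rap1-bound BODIPY-GDP; the signal is followed at 480/540 nm at 5-min intervals over 30 min, after 5 min at room temperature. Reactions contain 100 nM EPAC1, 250 nM RAP1B-BODIPY-GDP and 50 uM GDP; results are normalized to ATA and DMSO.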
Potency means the concentration at half of the fitted maximal effect; tags describe the fitted curve by direction and shape.

Potency, inconclusive:
O=[N+]([O-])c1ccc(NS(=O)(=O)c2ccc(Cl)c(Cl)c2)cc1 53.6 µM [inhibitor, partial curve, poor fit], O=c1oc2c3c(ccc2c2ccccc12)OCN(Cc1cccc(Cl)c1)C3 95.3 µM [inhibitor, partial curve, poor fit], CC1=C(C(=O)OC(C)C)C(c2ccc(C)o2)C(C(=O)OC(C)C)=C(C)N1 47.8 µM [inhibitor, partial curve], CCOc1ccc(NC(=O)CN(C)S(=O)(=O)c2ccc(-c3ccc(=O)[nH]n3)s2)cc1 23.9 µM [inhibitor, partial curve, poor fit], CC1(C)[C@@H](O)CC[C@]2(C)C3C(=O)C=C4C5C[C@@](C)(C(=O)O)CC[C@]5(C)CC[C@@]4(C)[C@]3(C)CC[C@@H]12 (stereo partly specified) 49.8 µM [inhibitor, partial curve], Cc1ccc(CN(C(=O)COc2cccc([N+](=O)[O-])c2)c2ccccn2)cc1 95.3 µM [inhibitor, partial curve, poor fit], O=C(Nc1cccc([N+](=O)[O-])c1)c1ccc2c(c1)C(=O)N(c1ccccn1)C2=O 7.94 µM [inhibitor, full curve], O=C(O)CC/C(=C\c1ccc(N2CCCC2)c([N+](=O)[O-])c1)c1nc2ccccc2s1 60.1 µM [inhibitor, partial curve], COc1cc(/C=C2\SC(=Nc3ccccc3)N(CCc3c[nH]c4ccccc34)C2=O)ccc1OC(C)C(=O)O (stereo unspecified) 33.8 µM [inhibitor, partial curve], COc1cc(OC)cc(-c2cc3ccc(OC)cc3cn2)c1 84.9 µM [inhibitor, partial curve, poor fit], CC1(Cc2cc(Cl)ccc2C(F)(F)F)C(=O)Nc2c(Cl)cccc21 (stereo unspecified) 67.5 µM [inhibitor, partial curve], Cn1cc(S(=O)(=O)Nc2cccc(F)c2)c(=O)n(C)c1=O 0.631 µM [inhibitor, full curve, poor fit], CCN(C(=O)Cn1c(=O)oc2cc(Cl)ccc21)c1cccc(C(F)(F)F)c1 95.3 µM [inhibitor, partial curve, poor fit], CN(CC(=O)Nc1ccc(Cl)c(C(F)(F)F)c1)C(=O)Cc1c[nH]c2ccccc12 39.8 µM [inhibitor, partial curve]

Potency, active:
CC1(C(=O)NS(=O)(=O)c2ccc(Cl)s2)CCN1C(=O)c1ccc(C2CCCCC2)cc1 (stereo unspecified) 79.4 µM, N#Cc1c(-c2cccs2)nc(SCC(=O)c2ccc(Br)cc2)[nH]c1=O 22.4 µM

activity, negative = inhibition, inactive:
CCCC(=O)N1c2nc(C(C)C)nn2C2(CCCCC2)[C@@H]2CCCC[C@@H]21 -19.2%, C/C(=C\c1ccco1)CN1CCN(Cc2ccc(C)o2)C(CCO)C1 (stereo unspecified) -21.2%, COc1ccc(CN(C(=O)c2cccs2)c2ccccc2)cc1 -19.5%, COc1cc(/C=C(\C#N)c2nc3ccccc3o2)ccc1O -3.14%, COc1cc(CN2CCN(C(=O)CC(C)C)CC2)c([N+](=O)[O-])cc1OC -16.5%, Cc1ccc(C2(C)NC(=O)N(CC(=O)Nc3ccccc3N3CCCCC3)C2=O)cc1 (stereo unspecified) -30.1%, COc1ccc(N=Cc2sc(O)c3ccccc23)cc1 18.8%, COC(=O)COc1ccc(C(c2c(C)[nH][nH]c2=O)c2c(C)[nH][nH]c2=O)cc1 -25.1%, CC(C)OC(=O)c1c(-c2ccccc2)c(-c2ccccc2)nn(C)c1=O -14.2%, CCOC(=O)/C(C#N)=C/c1ccc(N2CCCCC2)cc1 49.8%
